# According to PubChem BioAssay AID488969 (Vanderbilt High Throughput Screening Facility, 2010):
# In all, about 110,000 compounds were measured (“z-score”: median about -0.1, highest 2% from about 2 on). This is one part of the list.
# Biological target: Metabotropic glutamate receptor 8 (Rattus norvegicus) (UniProt P70579)
# Assay: mGluR8 Gi/Go-coupled signaling modulation – cell-based, rat, thallium flux, HTS, primary screen (AID 488969)
# Conditions: HEK293 rat mGluR8, GIRK (G protein-gated inwardly rectifying potassium channel) thallium flux, FluoZin2; at 10 µM; stronger effect = higher value; submaximal glutamate (EC20) added with thallium
# Chain of UniProt P70579 (P70579 whole entry, looked up): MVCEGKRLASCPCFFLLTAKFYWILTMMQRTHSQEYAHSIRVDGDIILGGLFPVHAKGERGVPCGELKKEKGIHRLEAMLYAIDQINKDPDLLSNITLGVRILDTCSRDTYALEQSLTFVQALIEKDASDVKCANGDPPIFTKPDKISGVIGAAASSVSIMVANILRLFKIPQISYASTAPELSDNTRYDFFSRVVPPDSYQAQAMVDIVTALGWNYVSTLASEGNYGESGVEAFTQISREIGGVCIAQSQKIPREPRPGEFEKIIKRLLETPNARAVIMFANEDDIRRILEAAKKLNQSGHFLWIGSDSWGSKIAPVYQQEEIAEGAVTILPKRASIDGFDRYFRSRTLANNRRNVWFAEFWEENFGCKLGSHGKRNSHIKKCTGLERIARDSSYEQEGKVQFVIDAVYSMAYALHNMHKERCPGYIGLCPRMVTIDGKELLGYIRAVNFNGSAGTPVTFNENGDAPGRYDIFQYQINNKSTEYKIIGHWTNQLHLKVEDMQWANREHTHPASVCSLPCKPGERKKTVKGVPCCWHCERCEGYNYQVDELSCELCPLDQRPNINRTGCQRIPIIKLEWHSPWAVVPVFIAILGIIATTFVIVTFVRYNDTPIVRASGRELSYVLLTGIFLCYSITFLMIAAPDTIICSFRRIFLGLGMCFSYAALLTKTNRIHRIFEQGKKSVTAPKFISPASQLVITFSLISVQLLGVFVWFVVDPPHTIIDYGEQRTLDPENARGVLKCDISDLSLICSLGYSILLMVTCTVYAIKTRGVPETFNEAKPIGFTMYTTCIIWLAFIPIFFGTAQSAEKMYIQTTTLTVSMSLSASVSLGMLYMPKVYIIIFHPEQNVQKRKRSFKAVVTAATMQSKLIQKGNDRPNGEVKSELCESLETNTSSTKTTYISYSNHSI
row,SMILES,z-score
1,CC(C)NC(=O)CSCc1cccc(Br)c1,-0.385
2,Cn1c(=O)c(C(=O)NCCO)c(O)c2ccccc21,-0.135
3,CCOCCCNC(=O)C(NC(=O)c1ccc(=O)[nH]c1)c1ccccc1 (configuration not stated),1.17
4,CCCOc1ccc2ccccc2c1/C=N/n1c(C)nnc1-n1nc(C)cc1C,-1.98
5,O=C(Nc1nccs1)c1cc2sccc2n1Cc1ccc(F)cc1,-0.691
6,CCOc1cccc2sc(NC(=O)CC)nc12,0.0368
7,C=CCNc1nc(-c2ccccc2)c(C(=O)OCC)cc1C#N,-0.303
8,Cc1cccc(C(=O)NNC(=O)CCC(=O)Nc2cccc(Cl)c2C)c1,-0.102
9,O=C1CCCN1CCNC(=S)Nc1ccccc1,-0.127
10,Cc1ccccc1C(=O)Nc1cccc(NC(=O)c2ccc(-c3ccc(Br)cc3)o2)c1,-0.485
11,O=C(O)CC(=O)Nc1cc(Cl)ccc1O,0.845
12,COc1ccc(CCNC(=O)c2cc(-c3ccc(Cl)c(Cl)c3)oc2C)cc1,-0.22
13,CCN(CC)c1ncn(Cc2c(Cl)cccc2Cl)c2ncnc1-2,-0.869
14,CC(=O)NC1=NC(=O)C(C)S1 (configuration not stated),-0.291
15,COc1ccc(S(=O)(=O)N2CCC(C(N)=O)CC2)c2ccccc12,-0.165
16,Cc1nn2c(N3CCN(C(=O)c4ccco4)CC3)cc(C(C)(C)C)nc2c1-c1ccccc1,-0.282
17,COc1ccc2c(c1)CCc1c(C(=O)Nc3ccc(OC)c(OC)c3)noc1-2,0.697
18,O=C(NCCc1ccccc1)c1oc2ccccc2c1COc1ccccc1,-0.293
19,CCc1nnc(NC(=O)c2ccc3c(c2)C(=O)N(CC)C3=O)s1,-0.0701
20,Cc1c(N2C(=O)c3ccc(F)cc3C2=O)c(=O)n(-c2ccccc2)n1C,0.0127
21,Oc1cccc(C(=S)N2CCN(Cc3ccccc3)CC2)c1,0.262
22,Fc1ccc(CN(Cc2ccccc2)C(c2cccs2)c2nnnn2C2CCCCC2)cc1 (configuration not stated),-0.638
23,NCC/C=C1/c2ccccc2CSc2ccccc21,1.44

row,SMILES,z-score
1,CC12CC3CC(C)(C1)CC(CN)(C3)C2,0.604
2,Cc1ccc(-n2c(SCC(=O)NCCN3C(=O)CSC3=O)nnc2-c2ccccc2)cc1,0.0356
3,CCOC(=O)C1=c2/c(=C/c3ccccc3OC)c(N)c(C#N)n2C(=O)C(c2ccccc2OC)S1 (configuration not stated),-0.49
4,CC(C)(C)c1ccc(C(=O)C=[N+]=[N-])cc1,-0.371
5,O=C1c2ccccc2C(=O)N1c1cccnc1,0.138
6,Cc1ccccc1NC(=O)c1ccccc1,0.686
7,Cc1ccc(-c2nnn(CC(=O)N(Cc3ccc(F)cc3)C(C(=O)NC3CCCC3)c3ccncc3)n2)o1 (configuration not stated),-0.423
8,CCOC(=O)c1cn2cccnc2n1,0.35
9,COc1ccc(C2SCC(=O)N2CC23CC4CC(CC(C4)C2)C3)cc1 (configuration not stated),-0.23
10,COc1ccccc1NC(=O)CSc1nncn1-c1cccnc1,-0.0905
11,CC1=C(C(=O)Nc2ccccn2)C(c2ccc(Br)cc2)n2ncnc2N1 (configuration not stated),-0.306
12,O=C(Nc1ncccc1Cl)c1cccc(F)c1,-0.272
13,O=C1CCC(C(=O)OCC(=O)C23CC4CC(CC(C4)C2)C3)N1 (configuration not stated),0.988
14,CCOc1ccc(NC(=O)C(c2ccccn2)N(C(=O)CCl)c2ccc(F)cc2)cc1 (configuration not stated),0.0895
15,Cc1cc(SCC(=O)NC(=O)NCc2ccco2)nc2ccccc12,-0.269
16,Cc1onc(-c2c(F)cccc2Cl)c1C(=O)Nc1nnc(-c2ccccc2)s1,-0.429
17,Cc1sc2nc(COC(=O)CNC(=O)c3ccc(C(C)(C)C)cc3)[nH]c(=O)c2c1C,-0.282
18,CSc1nc(C)cc(C)c1S(=O)(=O)c1ccccc1C,-0.374
19,Cn1c(=O)c2cn(-c3ccc4c(c3)OCCO4)cc2n(C)c1=O,0.592
20,Cc1ccc(NC(=S)NNC(=O)C2CC2c2ccc(C)cc2)cc1 (configuration not stated),1.64
21,O=C(O)CCCC(=O)N1N=C(c2ccccc2)CC1c1ccc2nccnc2c1 (configuration not stated),0.221
22,CCN(CC)CCCNC(=O)c1cc(-c2cccc(Cl)c2)on1,2.64
23,O=C(NC1CCCC1)c1cnc2n(c1=O)CCS2,-0.474

row,SMILES,z-score
1,O=C(Cc1ccc(-n2cccc2)cc1)NCc1cccs1,-0.575
2,COc1ccc(CCN2C(=NC(=O)CC(C)C)SC3CS(=O)(=O)CC32)cc1 (configuration not stated),0.0119
3,COc1ccc(-n2c(SCC(=O)Nc3sc4c(c3C#N)CCCC4)nnc2-c2ccccc2OC)cc1,-0.898
4,COc1cccc(C(=O)Nc2ccc(NC(=O)C(C)(C)C)cn2)c1,0.0192
5,Cc1cc(NC(=O)c2ccc(F)cc2)n(CCOC(=O)c2ccc(F)cc2)n1,-0.0704
6,O=C(OCC(=O)N1CCc2ccccc21)c1cccnc1Cl,0.118
7,O=C(COc1ccccc1O)Nc1ccc(Cl)cc1,-0.0165
8,COCCNS(=O)(=O)c1ccc2c(c1)oc(=O)c1cc(S(=O)(=O)NCCOC)ccc12,0.353
9,COC(=O)c1ccc(C(=O)OC)c(NC(=O)Oc2ccccc2)c1,-0.285
10,Cc1cc(C(F)(F)F)n(-c2nc(C(=O)NNS(=O)(=O)c3ccccc3)cs2)n1,0.622
11,COc1ccccc1OCCOc1ccc(/C=C2/C(=N)N3OC(C)=CC3=NC2=O)cc1OC,-0.177
12,CC1CCCCN1CCn1c(=S)[nH]c2ncccc2c1=O (configuration not stated),1.22
13,Fc1cc(F)c(F)c(SCCc2ccncc2)c1F,-0.679
14,CC(C)=NOC(=O)c1ccc(-c2ccccc2)cc1,-0.0217
15,Cn1c(=O)[nH]c(=O)c2c1nc(N1CCCC1)n2CC(O)COc1ccccc1 (configuration not stated),-0.304
16,CCC1(CC)C(=O)C(C)(C)C(=O)OC1c1cccs1 (configuration not stated),-0.0259
17,CCOC(=O)C1CCN(C(=O)Nc2ccc3snnc3c2)CC1,-0.867
18,COc1cc2c(=O)n(CC3CCCO3)c(=O)n(CC(=O)Nc3cccc(Cl)c3)c2cc1OC (configuration not stated),-0.197
19,O=C(NCc1ccccn1)/C(=N/O)c1ccccc1,-0.962
20,COc1cc(CO)cc(Br)c1OCC(=O)O,1.44
21,O=S(=O)(c1cccs1)N1CCN(Cc2ccccc2)CC1,-0.34
22,O=C(c1ccc(COc2ccc(Cl)cc2)o1)N1CCN(Cc2ccc3c(c2)OCO3)CC1,0.601
23,CCOC(CNc1c([N+](=O)[O-])c(=O)n(C)c(=O)n1C)OCC,-0.287

row,SMILES,z-score
1,Cc1c(C(=O)N(C)C)sc(NC(=O)c2cc([N+](=O)[O-])cc([N+](=O)[O-])c2)c1C#N,-0.153
2,Cc1nn(-c2ccccc2)c(C)c1/C=N/NC(=O)c1cc(-c2ccccc2)n[nH]1,-0.451
3,O=C(Nc1ccccc1C(F)(F)F)N1CCN(C(c2ccccc2)c2ccccc2)CC1,-0.492
4,COC(=O)c1ccccc1NC(=O)Cn1c(-c2nonc2N)nc2ccccc21,0.233
5,O=C(NCC(=O)N(Cc1ccco1)C(C(=O)NC1CCCCC1)c1cccnc1)c1cccs1 (configuration not stated),0.277
6,c1ccc(-c2n[nH]c3c2CCC3)cc1,-0.528
7,CN(C)CCC1Sc2ccccc2Oc2ccccc21 (configuration not stated),1.77
8,CN1C(=O)C(O)(CC(=O)/C=C/C=C/c2ccccc2)c2ccccc21 (configuration not stated),0.0047
9,Cc1ccc(CN2CCN(C(=O)C3CCCO3)CC2)cc1 (configuration not stated),-0.195
10,COC(=O)C(C)(C)ONC(=O)Nc1ccccc1,-0.0433
11,CCOc1ncccc1C(=O)OCC(=O)Nc1c(C)cc(C)cc1C,-0.13
12,Cc1ccc(NC(=O)CN(C)C(=O)CCOc2cccc(C)c2)cc1,-0.0456
13,COc1ccc2nc(NC(=O)CNS(=O)(=O)c3cccs3)sc2c1,0.961
14,O=C(CNC(=O)c1ccc(S(=O)(=O)N2CCCC2)cc1)N/N=C/c1ccccc1,-0.345
15,O=C(NCc1ccccn1)c1cc2ccccc2oc1=O,0.513
16,O=C1CC(c2ccccc2)n2ncnc2N1 (configuration not stated),0.0831
17,COc1ccc(C(C(=O)NC2CCCCC2)N(CC2CCCO2)C(=O)C2COc3ccccc3O2)cc1OC (configuration not stated),-0.167
18,Cn1c(C(O)c2ccc3c(c2)OCO3)nc2ccccc21 (configuration not stated),0.102
19,CCSC1=N/C(=C\c2ccc(C)s2)C(=O)S1,-1.31
20,COc1ccc2c(C(=O)CN3CCN(CCO)CC3)c[nH]c2c1,-0.118
21,CCOC(=O)NC(c1cccc(Cl)c1)C1CCCCCC1=O (configuration not stated),-0.163
22,COc1ccc(CCCC(=O)NCc2ccccc2)cc1C,-0.246
23,CCC1(C)N([O-])C(C)=C(c2ccccc2)[N+]1=O (configuration not stated),-0.263

row,SMILES,z-score
1,O=C(Oc1c(Br)cc(C(=S)N2CCOCC2)cc1Br)c1ccc(Cl)cc1,-0.0247
2,CC1=Nc2nc(N3CCCCC3)c(C#N)c3c4c(nc(c23)N1)N(c1ccc(C(C)C)cc1)C(=O)C4,-0.0128
3,COc1cccc(-n2c(C)n[nH]c2=O)c1,1.2
4,CCOc1ccc(N2C(=O)CS/C2=C(\C(Cl)=C(Cl)Cl)[N+](=O)[O-])cc1,-0.279
5,CC(/C=C1\SC(=S)N(CCCC(=O)Nc2ccc(C(=O)O)c(O)c2)C1=O)=C\c1ccccc1,1.3
6,CCOC(=O)c1ccc(NC(=O)CCc2nc(-c3ccc(C)cc3)no2)cc1,0.00119
7,CCOC(=O)c1nnn(-c2nonc2N)c1COc1ccc(F)cc1,-0.0888
8,O=C(NC1CCCC1)C(c1ccc(F)cc1)N(Cc1ccccc1Cl)C(=O)CCl (configuration not stated),-0.0267
9,CCc1n[nH]c2c1C(=O)CC(C)(C)C2,-0.313
10,C/C(CC(=O)NCc1ccco1)=N\NC(=O)Cc1ccccc1,0.118
11,O=C(Nc1ccccc1F)c1ccc(CNS(=O)(=O)c2cccc(C(F)(F)F)c2)cc1,0.0314
12,CCOC(=O)c1c(C)[nH]c(C(=O)Cn2nnc(-c3ccc(Cl)cc3)n2)c1C,-0.242
13,COc1ccc(C(=O)Nc2ccc(S(=O)(=O)N3CCc4ccccc43)cc2)cc1,0.257
14,CCC(=O)N[C@@H]1CC(C(C)(C)NC(=O)CC)CC=C1C (some centres not stated),-0.0475
15,CCCc1cc(C(=O)Nc2ccc(C)cc2)no1,0.229
16,COC(=O)c1cn(C)c2ccc(S(=O)(=O)N3CC(C)CC(C)C3)cc2c1=O (configuration not stated),-0.281
17,c1ccc(SCCOCCn2cncn2)cc1,-0.483
18,CCOC(=O)c1cc2c(C(F)(F)F)cc(-c3cccnc3)nc2o1,-0.353
19,COc1ccc(C2Nc3ccccc3C(=O)N2c2ccc(C)cc2)cc1Cn1cc([N+](=O)[O-])cn1 (configuration not stated),-0.254
20,CC1CCCC/C1=N/Nc1ccc([N+](=O)[O-])cc1[N+](=O)[O-] (configuration not stated),-0.242
